The other results are listed elsewhere or left out. The full chains were built here from the parent and the listed change. Values near 0.05 are background.
B1: TEV protease; numbered along this chain (parent)
chain: MGESLFKGPRDYNPISSSICHLTNESDGHTTSLYGIGFGPFIITNKHLFRRNNGTLVVQSLHGVFKVKDTTTLQQHLVDGRDMIIIRMPKDFPPFPQKLKFREPQREERICLVTTNFQTKSMSSMVSDTSCTFPSGDGIFWKHWIQTKDGQCGSPLVSTRDGFIVGIHSASNFTNTNNYFTSVPKNFMELLTNQEAQQWVSGWRLNADSVLWGGHKVFMVKPEEPFQPVKEATQL

Variants of: B1
Assay: raw area under fraction-flipped curve 0-4 h after induction (AUC4h, not background-subtracted), DNA-recorder readout of cleavage of the substrate (dimensionless); higher = more cleavage of the substrate by the protease variant
Conditions: temperature: 34 °C; time window: 0-4 h after rhamnose induction
Method: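 In vivo DNA recorder in E. coli TOP10(DE3) ΔrhaA at 34 °C. Each TEVp single-site mutant (parent TEVp 0) is paired with a single-site variant of the 7-mer TEVs (canonical ENLYFQ|S). The substrate sits between flexible linkers in a Bxb1-sfGFP-TEVs-SsrA fusion, so cleavage stabilises Bxb1 and speeds flipping of a recombination array, read by NGS. The value is the raw area under the fraction-flipped curve over 0-4 h after rhamnose induction (AUC4h), with ≥20 reads per time point. It is not background-subtracted; inactive controls average about 0.047.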
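Further: Bxb1 expression induced with 0.2% (w/v) L-rhamnose at OD600 near 0.5, cultures sampled hourly, flipped fraction per protease–substrate barcode pair counted by paired-end Illumina sequencing.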

Row | Variant | area with substrate ENLAFQS | area with substrate ENLDFQS | area with substrate ENLEFQS | area with substrate ENLFFQS | area with substrate ENLHFQS | area with substrate ENLKFQS | area with substrate ENLLFQS | area with substrate ENLNFQS | area with substrate ENLRFQS | area with substrate ENLSFQS | area with substrate ENLWFQS | area with substrate ENLIFQS | area with substrate ENLPFQS | area with substrate ENLQFQS | area with substrate ENLTFQS | area with substrate ENLCFQS | area with substrate ENLGFQS | area with substrate ENLMFQS | area with substrate ENLVFQS
1 | MGESLFKGPRDYNPISSSICHLTNESDGHTTSLYGIGFGPFIITNKHLFRRNNGTLVVQSLHGVFKVKDTTTLQQHLVDGRDMIIIRMPKDFPPPPQKLKFREPQREERICLVTTNFQTKSMSSMVSDTSCTFPSGDGIFWKHWIQTKDGQCGSPLVSTRDGFIVGIHSASNFTNTNNYFTSVPKNFMELLTNQEAQQWVSGWRLNADSVLWGGHKVFMVKPEEPFQPVKEATQL [F95P] | 0.0583 | 0.0596 | 0.052 | 0.0536 | 0.0367 | 0.0547 | 0.0488 | 0.0614 | 0.0559 | 0.0349 | 0.0547 |  |  |  |  |  |  |  | 
2 | MGESLFKGPRDYNPISSSICHLTNESDGHTTSLYGIGFGPFIITNKHLFRRNNGTLVVQSLHGVFKVKDTTTLQQHLVDGRDMIIIRMPKDFPPEPQKLKFREPQREERICLVTTNFQTKSMSSMVSDTSCTFPSGDGIFWKHWIQTKDGQCGSPLVSTRDGFIVGIHSASNFTNTNNYFTSVPKNFMELLTNQEAQQWVSGWRLNADSVLWGGHKVFMVKPEEPFQPVKEATQL [F95E] | 0.0444 | 0.0449 | 0.0525 | 0.0913 | 0.0464 | 0.0461 | 0.0462 | 0.0436 |  | 0.0465 | 0.0474 | 0.0554 | 0.0653 | 0.0486 | 0.0636 |  |  |  | 
3 | MGESLFKGPRDYNPISSSICHLTNESDGHTTSLYGIGFGPFIITNKHLFRRNNGTLVVQSLHGVFKVKDTTTLQQHLVDGRDMIIIRMPKDFPPFPMKLKFREPQREERICLVTTNFQTKSMSSMVSDTSCTFPSGDGIFWKHWIQTKDGQCGSPLVSTRDGFIVGIHSASNFTNTNNYFTSVPKNFMELLTNQEAQQWVSGWRLNADSVLWGGHKVFMVKPEEPFQPVKEATQL [Q97M] | 0.0663 | 0.0599 | 0.0605 | 0.083 | 0.063 | 0.0752 | 0.0661 | 0.0593 |  | 0.0674 | 0.0739 | 0.101 | 0.0654 | 0.0535 |  | 0.0852 | 0.0457 | 0.0738 | 
4 | MGESLFKGPRDYNPISSSICHLTNESDGHTTSLYGIGFGPFIITNKHLFRRNNGTLVVQSLHGVFKVKDTTTLQQHLVDGRDMIIIRMPKDWPPFPQKLKFREPQREERICLVTTNFQTKSMSSMVSDTSCTFPSGDGIFWKHWIQTKDGQCGSPLVSTRDGFIVGIHSASNFTNTNNYFTSVPKNFMELLTNQEAQQWVSGWRLNADSVLWGGHKVFMVKPEEPFQPVKEATQL [F92W] | 0.061 |  | 0.0748 | 0.0737 |  | 0.0872 | 0.0804 | 0.0669 |  | 0.0823 | 0.0733 |  |  |  |  | 0.0833 |  | 0.0927 | 
5 | MGESLFKGPRDYNPISSSICHLTNESDGHTTSLYGIGFGPFIITNKHLFRRNNGTLVVQSLHGVFKVKDTTTLQQHLVDGRDMIIIRMPKDSPPFPQKLKFREPQREERICLVTTNFQTKSMSSMVSDTSCTFPSGDGIFWKHWIQTKDGQCGSPLVSTRDGFIVGIHSASNFTNTNNYFTSVPKNFMELLTNQEAQQWVSGWRLNADSVLWGGHKVFMVKPEEPFQPVKEATQL [F92S] | 0.0799 |  | 0.0626 | 0.0478 |  | 0.0629 |  | 0.067 | 0.0832 |  | 0.0494 | 0.054 | 0.0628 | 0.0828 |  | 0.0526 | 0.046 |  | 
6 | MGESLFKGPRDYNPISSSICHLTNESDGHTTSLYGIGFGPFIITNKHLFRRNNGTLVVQSLHGVFKVKDTTTLQQHLVDGRDMIIIRMPKDMPPFPQKLKFREPQREERICLVTTNFQTKSMSSMVSDTSCTFPSGDGIFWKHWIQTKDGQCGSPLVSTRDGFIVGIHSASNFTNTNNYFTSVPKNFMELLTNQEAQQWVSGWRLNADSVLWGGHKVFMVKPEEPFQPVKEATQL [F92M] | 0.0572 | 0.0545 | 0.0669 |  |  |  |  | 0.0749 |  |  |  | 0.103 | 0.0666 | 0.073 | 0.105 | 0.07 |  | 0.0557 | 0.106
7 | MGESLFKGPRDYNPISSSICHLTNESDGHTTSLYGIGFGPFIITNKHLFRRNNGTLVVQSLHGVFKVKDTTTLQQHLVDGRDMINIRMPKDFPPFPQKLKFREPQREERICLVTTNFQTKSMSSMVSDTSCTFPSGDGIFWKHWIQTKDGQCGSPLVSTRDGFIVGIHSASNFTNTNNYFTSVPKNFMELLTNQEAQQWVSGWRLNADSVLWGGHKVFMVKPEEPFQPVKEATQL [I85N] | 0.0584 | 0.0467 | 0.0418 | 0.0408 |  | 0.0479 | 0.0635 | 0.0531 | 0.0418 | 0.0521 |  |  |  | 0.0364 |  | 0.062 |  |  | 
8 | MGESLFKGPRDYNPISSSICHLTNESDGHTTSLYGIGFGPFIITNKHLFRRNNGTLVVQSLHGVFKVKDTTTLQQHLVDGRDMISIRMPKDFPPFPQKLKFREPQREERICLVTTNFQTKSMSSMVSDTSCTFPSGDGIFWKHWIQTKDGQCGSPLVSTRDGFIVGIHSASNFTNTNNYFTSVPKNFMELLTNQEAQQWVSGWRLNADSVLWGGHKVFMVKPEEPFQPVKEATQL [I85S] | 0.0445 | 0.0603 | 0.0497 | 0.0571 |  |  | 0.0668 |  |  | 0.0484 |  | 0.0528 | 0.0449 | 0.0386 | 0.0609 |  | 0.0508 | 0.0572 | 0.0542
